The supplement of paper PMC8728848
This is one part of the list.

Legend:
Assay in all cases: glycan array binding signal (z-score within array); higher = stronger binding
Details in all cases: glycan notation: IUPAC condensed, linker removed
[1] = molecular target: Gal(b1-4)Glc
Procedure, shortened: (§1)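 Negative Z-scores can be read as non-binding. The Z-score is calculated within each array and then averaged across arrays of one protein sequence at different concentrations or buffers and across linkers. Arrays, 3228 in all, were curated from the Consortium for Functional Glycomics database and kept only where the protein sequence was available.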

[2] = molecular target: Gal(b1-4)Glc6S
Procedure, shortened: as §1

[3] = molecular target: Gal(b1-4)GlcNAc
Procedure, shortened: as §1

[4] = molecular target: Gal(b1-4)GlcNAc(a1-6)Gal(b1-4)GlcNAc
Procedure, shortened: as §1

[5] = molecular target: Gal(b1-4)GlcNAc(b1-2)Man
Procedure, shortened: as §1

[6] = molecular target: Gal(b1-4)GlcNAc(b1-2)Man(a1-3)Man(b1-4)GlcNAc(b1-4)GlcNAc
Procedure, shortened: as §1

[7] = molecular target: Gal(b1-4)GlcNAc(b1-2)Man(a1-3)[Gal(b1-4)GlcNAc(b1-2)Man(a1-6)]Man(b1-4)GlcNAc(b1-4)GlcNAc
Procedure, shortened: as §1

[8] = molecular target: Gal(b1-4)GlcNAc(b1-2)Man(a1-3)[Gal(b1-4)GlcNAc(b1-2)Man(a1-6)]Man(b1-4)GlcNAc(b1-4)[Fuc(a1-6)]GlcNAc
Procedure, shortened: as §1

[9] = molecular target: Gal(b1-4)GlcNAc(b1-2)Man(a1-3)[Gal(b1-4)GlcNAc(b1-2)Man(a1-6)][Gal(b1-4)GlcNAc(b1-4)]Man(b1-4)GlcNAc(b1-4)[Fuc(a1-6)]GlcNAc
Procedure, shortened: as §1

[10] = molecular target: Gal(b1-4)GlcNAc(b1-2)Man(a1-3)[Gal(b1-4)GlcNAc(b1-2)Man(a1-6)][GlcNAc(b1-4)]Man(b1-4)GlcNAc(b1-4)[Fuc(a1-6)]GlcNAc
Procedure, shortened: as §1

[11] = molecular target: Gal(b1-4)GlcNAc(b1-2)Man(a1-3)[GlcNAc(b1-2)Man(a1-6)]Man(b1-4)GlcNAc(b1-4)GlcNAc
Procedure, shortened: as §1

[12] = molecular target: Gal(b1-4)GlcNAc(b1-2)Man(a1-3)[GlcNAc(b1-4)][Gal(b1-4)GlcNAc(b1-2)Man(a1-6)]Man(b1-4)GlcNAc(b1-4)GlcNAc
Procedure, shortened: as §1

[13] = molecular target: Gal(b1-4)GlcNAc(b1-2)Man(a1-3)[Man(a1-6)]Man(b1-4)GlcNAc(b1-4)GlcNAc
Procedure, shortened: as §1

[14] = molecular target: Gal(b1-4)GlcNAc(b1-2)Man(a1-6)Man(b1-4)GlcNAc(b1-4)GlcNAc
Procedure, shortened: as §1

[15] = molecular target: Gal(b1-4)GlcNAc(b1-2)Man(a1-6)[GlcNAc(b1-2)Man(a1-3)]Man(b1-4)GlcNAc(b1-4)GlcNAc
Procedure, shortened: as §1

[16] = molecular target: Gal(b1-4)GlcNAc(b1-2)Man(a1-6)[Man(a1-3)]Man(b1-4)GlcNAc(b1-4)GlcNAc
Procedure, shortened: as §1

[17] = molecular target: Gal(b1-4)GlcNAc(b1-2)[Gal(b1-4)GlcNAc(b1-4)]Man(a1-3)[Gal(b1-4)GlcNAc(b1-2)Man(a1-6)]Man(b1-4)GlcNAc(b1-4)GlcNAc
Procedure, shortened: as §1

[18] = molecular target: Gal(b1-4)GlcNAc(b1-2)[Gal(b1-4)GlcNAc(b1-4)]Man(a1-3)[Gal(b1-4)GlcNAc(b1-2)[Gal(b1-4)GlcNAc(b1-6)]Man(a1-6)]Man(b1-4)GlcNAc(b1-4)GlcNAc
Procedure, shortened: as §1

[19] = molecular target: Gal(b1-4)GlcNAc(b1-2)[Gal(b1-4)GlcNAc(b1-4)]Man(a1-3)[GlcNAc(b1-4)][Gal(b1-4)GlcNAc(b1-2)Man(a1-6)]Man(b1-4)GlcNAc(b1-4)GlcNAc
Procedure, shortened: as §1

[20] = molecular target: Gal(b1-4)GlcNAc(b1-2)[Gal(b1-4)GlcNAc(b1-4)]Man(a1-3)[GlcNAc(b1-4)][Gal(b1-4)GlcNAc(b1-2)[Gal(b1-4)GlcNAc(b1-6)]Man(a1-6)]Man(b1-4)GlcNAc(b1-4)GlcNAc
Procedure, shortened: as §1

[21] = molecular target: Gal(b1-4)GlcNAc(b1-2)[Gal(b1-4)GlcNAc(b1-6)]Man(a1-6)[Gal(b1-4)GlcNAc(b1-2)Man(a1-3)]Man(b1-4)GlcNAc(b1-4)GlcNAc
Procedure, shortened: as §1

[22] = molecular target: Gal(b1-4)GlcNAc(b1-2)[Gal(b1-4)GlcNAc(b1-6)]Man(a1-6)[Gal(b1-4)GlcNAc(b1-2)Man(a1-3)]Man(b1-4)GlcNAc(b1-4)[Fuc(a1-6)]GlcNAc
Procedure, shortened: as §1

[23] = molecular target: Gal(b1-4)GlcNAc(b1-2)[Gal(b1-4)GlcNAc(b1-6)]Man(a1-6)[GlcNAc(b1-4)][Gal(b1-4)GlcNAc(b1-2)Man(a1-3)]Man(b1-4)GlcNAc(b1-4)GlcNAc
Procedure, shortened: as §1

[24] = molecular target: Gal(b1-4)GlcNAc(b1-2)[Gal(b1-4)GlcNAc(b1-6)]Man(a1-6)[GlcNAc(b1-4)][Gal(b1-4)GlcNAc(b1-2)[Gal(b1-4)GlcNAc(b1-4)]Man(a1-3)]Man(b1-4)GlcNAc(b1-4)[Fuc(a1-6)]GlcNAc
Procedure, shortened: as §1

[25] = molecular target: Gal(b1-4)GlcNAc(b1-3)Gal(b1-3)GalNAc
Procedure, shortened: as §1

[26] = molecular target: Gal(b1-4)GlcNAc(b1-3)Gal(b1-3)GlcNAc
Procedure, shortened: as §1

[27] = molecular target: Gal(b1-4)GlcNAc(b1-3)Gal(b1-4)Glc
Procedure, shortened: as §1

[28] = molecular target: Gal(b1-4)GlcNAc(b1-3)Gal(b1-4)GlcNAc
Procedure, shortened: as §1

[29] = molecular target: Gal(b1-4)GlcNAc(b1-3)Gal(b1-4)GlcNAc(b1-2)Man(a1-3)[Gal(b1-4)GlcNAc(b1-3)Gal(b1-4)GlcNAc(b1-2)Man(a1-6)]Man(b1-4)GlcNAc(b1-4)GlcNAc
Procedure, shortened: as §1

[30] = molecular target: Gal(b1-4)GlcNAc(b1-3)Gal(b1-4)GlcNAc(b1-2)Man(a1-3)[Gal(b1-4)GlcNAc(b1-3)Gal(b1-4)GlcNAc(b1-2)Man(a1-6)]Man(b1-4)GlcNAc(b1-4)[Fuc(a1-6)]GlcNAc
Procedure, shortened: as §1

[31] = molecular target: Gal(b1-4)GlcNAc(b1-3)Gal(b1-4)GlcNAc(b1-2)[Gal(b1-4)GlcNAc(b1-3)Gal(b1-4)GlcNAc(b1-6)]Man(a1-6)[Gal(b1-4)GlcNAc(b1-3)Gal(b1-4)GlcNAc(b1-2)Man(a1-3)]Man(b1-4)GlcNAc(b1-4)GlcNAc
Procedure, shortened: as §1

[32] = molecular target: Gal(b1-4)GlcNAc(b1-3)Gal(b1-4)GlcNAc(b1-2)[Gal(b1-4)GlcNAc(b1-3)Gal(b1-4)GlcNAc(b1-6)]Man(a1-6)[Gal(b1-4)GlcNAc(b1-3)Gal(b1-4)GlcNAc(b1-2)Man(a1-3)]Man(b1-4)GlcNAc(b1-4)[Fuc(a1-6)]GlcNAc
Procedure, shortened: as §1

[33] = molecular target: Gal(b1-4)GlcNAc(b1-3)Gal(b1-4)GlcNAc(b1-3)Gal(b1-4)GlcNAc
Procedure, shortened: as §1

[34] = molecular target: Gal(b1-4)GlcNAc(b1-3)Gal(b1-4)GlcNAc(b1-3)Gal(b1-4)GlcNAc(b1-2)Man(a1-3)[Gal(b1-4)GlcNAc(b1-3)Gal(b1-4)GlcNAc(b1-3)Gal(b1-4)GlcNAc(b1-2)Man(a1-6)]Man(b1-4)GlcNAc(b1-4)GlcNAc
Procedure, shortened: as §1

[35] = molecular target: Gal(b1-4)GlcNAc(b1-3)Gal(b1-4)GlcNAc(b1-3)Gal(b1-4)GlcNAc(b1-2)Man(a1-3)[Gal(b1-4)GlcNAc(b1-3)Gal(b1-4)GlcNAc(b1-3)Gal(b1-4)GlcNAc(b1-2)Man(a1-6)]Man(b1-4)GlcNAc(b1-4)[Fuc(a1-6)]GlcNAc
Procedure, shortened: as §1

[36] = molecular target: Gal(b1-4)GlcNAc(b1-3)Gal(b1-4)GlcNAc(b1-3)Gal(b1-4)GlcNAc(b1-2)[Gal(b1-4)GlcNAc(b1-3)Gal(b1-4)GlcNAc(b1-3)Gal(b1-4)GlcNAc(b1-6)]Man(a1-6)[Gal(b1-4)GlcNAc(b1-3)Gal(b1-4)GlcNAc(b1-3)Gal(b1-4)GlcNAc(b1-2)Man(a1-3)]Man(b1-4)GlcNAc(b1-4)[Fuc(a1-6)]GlcNAc
Procedure, shortened: as §1

[37] = molecular target: Gal(b1-4)GlcNAc(b1-3)Gal(b1-4)GlcNAc(b1-3)Gal(b1-4)GlcNAc(b1-3)Gal(b1-4)GlcNAc(b1-2)Man(a1-3)[Gal(b1-4)GlcNAc(b1-3)Gal(b1-4)GlcNAc(b1-3)Gal(b1-4)GlcNAc(b1-3)Gal(b1-4)GlcNAc(b1-2)Man(a1-6)]Man(b1-4)GlcNAc(b1-4)GlcNAc
Procedure, shortened: as §1

B1: B725 (Bifidobacterium sp) (protein)
chain: MNNTTRAVIATAAIGALLIPLAGCGNTTTSSGKTELTVWSWDASIDRAAKSFMKANPDITVKVSNVGSTEETYTALNNAAQAGSGLPDVTLIEYLAIPQFVHSDTLMDLSKVYNTAKLKDTFTPGTWNSVNINGGLYAMPADSGPMAYFYDKDVFDKAGISEPPTTWDEFYEDAKKIRATGSYITSDSGDAGLFNAMMWAMGGHAYKLNDDKLTINIAKDKGAQRFMDLWQKMRDEDLIDVHTKTWTDDWMKSLGDGSIASLISGAWMANNLLQGVPQATGKFRVALLPTIDGTPINGEYGGSGLAITKKIPDGKLDAAKKFVEYVTTNDEGIDARVSNGSFPATTKTLNQKDFLAKTTLRNTDGSDNEFFGGQKYNEIFSQAAKDVTGKWEFLPFEPYARSVYNDNMGSFFAGKTSFRTAADNWQKALKDYAKDQGFTVQ
glycan array binding signal (z-score) [1]: 1.18
glycan array binding signal (z-score) [2]: -0.222
glycan array binding signal (z-score) [3]: 3.27
glycan array binding signal (z-score) [4]: -0.176
glycan array binding signal (z-score) [5]: -0.209
glycan array binding signal (z-score) [6]: -0.229
glycan array binding signal (z-score) [7]: -0.212
glycan array binding signal (z-score) [8]: -0.204
glycan array binding signal (z-score) [9]: -0.231
glycan array binding signal (z-score) [10]: -0.234
glycan array binding signal (z-score) [11]: -0.23
glycan array binding signal (z-score) [12]: -0.208
glycan array binding signal (z-score) [13]: -0.232
glycan array binding signal (z-score) [14]: -0.219
glycan array binding signal (z-score) [15]: -0.223
glycan array binding signal (z-score) [16]: -0.226
glycan array binding signal (z-score) [17]: -0.23
glycan array binding signal (z-score) [18]: -0.22
glycan array binding signal (z-score) [19]: -0.222
glycan array binding signal (z-score) [20]: -0.211
glycan array binding signal (z-score) [21]: -0.177
glycan array binding signal (z-score) [22]: -0.192
glycan array binding signal (z-score) [23]: -0.208
glycan array binding signal (z-score) [24]: -0.229
glycan array binding signal (z-score) [25]: -0.188
glycan array binding signal (z-score) [26]: 2.17
glycan array binding signal (z-score) [27]: 6.34
glycan array binding signal (z-score) [28]: 3.29
glycan array binding signal (z-score) [29]: 1.67
glycan array binding signal (z-score) [30]: 2.27
glycan array binding signal (z-score) [31]: 0.832
glycan array binding signal (z-score) [32]: 2.27
glycan array binding signal (z-score) [33]: 6.94
glycan array binding signal (z-score) [34]: 5.11
glycan array binding signal (z-score) [35]: 4.38
glycan array binding signal (z-score) [36]: 7.51
glycan array binding signal (z-score) [37]: 5.3
